{"source": "patent US20160206608A1", "about": "(Pfizer Inc., priority 2011, published 2016)", "test_system": "3T3-CD74-ROS tumor xenograft", "test": "3T3-CD74-ROS xenograft tumor growth", "conditions": "20 to 160 mg/kg/day, oral BID"}
{"smiles": "C[C@@H](Oc1cc(-c2cnn(C3CCNCC3)c2)cnc1N)c1c(Cl)ccc(F)c1Cl", "note": "[crizotinib, 3-[(R)-1-(2,6-dichloro-3-fluoro-phenyl)-ethoxy]-5-(1-piperidin-4-yl-1H-pyrazol-4-yl)-pyridin-2-ylamine]", "values": [{"measurement": "inhibition in tumor growth (in words)", "value": "dose-dependent inhibition"}]}
